Data on 31 sequences can be found in paper PMC12820563, “FoxP3 forms a head-to-head dimer in vivo and stabilizes its multimerization on adjacent microsatellites”.

The other results are listed elsewhere or left out.

For this experiment, the target named is T1, MBP-FoxP1dN (Mus musculus, UniProt P58462 326-579).
T1 sequence: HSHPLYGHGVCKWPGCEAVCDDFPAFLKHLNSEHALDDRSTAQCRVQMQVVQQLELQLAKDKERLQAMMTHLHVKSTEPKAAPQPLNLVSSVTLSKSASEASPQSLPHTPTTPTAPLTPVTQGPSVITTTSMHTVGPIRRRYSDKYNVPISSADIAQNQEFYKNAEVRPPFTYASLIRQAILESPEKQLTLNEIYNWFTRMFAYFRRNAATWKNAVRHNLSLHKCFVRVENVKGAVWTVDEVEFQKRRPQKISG
Nature of the experiment: PD-seq (MBP pull-down with sequencing); 20 mM Tris-HCl pH 7.5, 100 mM NaCl, 1.5 mM MgCl2, 0.4 uM protein, 0.1 uM dsDNA library, 30 min, room temperature, amylose pull-down; high values mean tight binding. Conditions: protein: recombinant; tags: His6-MBP; chain copies: 2; dsDNA, one strand shown. The procedure, abridged: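 A degenerate double-stranded DNA library, filled in with Klenow, was added at 0.1 µM to 0.4 µM His6-MBP-tagged mouse FoxP3 or FoxP1 fragment lacking the N-terminus, expressed in E. coli. Incubation lasted 30 min at room temperature in Tris pH 7.5 buffer with NaCl and MgCl2, after which complexes were collected on amylose resin, washed three times, digested with proteinase K to free the DNA, barcoded by PCR and sequenced by Illumina. Binding is the pooled-replicate reads-per-million enrichment of pull-down over input.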
For the sequence “GATGATTGTTCTCCCAGCTGATGAATTACTCTCGTCGAGTAAACAAATTTTCCTAATCTTTCTGTTCAAGCGCCATCTAC”, the binding signal is 0.927 RPM ratio (pull-down/input).

Take “GATGATTGTTCTCCCAGCTGATGAATTCCTTGAGTCGAGTAAACAAATTTTCCTAATCTTTCTGTTCAAGCGCCATCTAC”: the binding signal was 0.889 RPM ratio (pull-down/input).

As for “GATGATTGTTCTCCCAGCTGATGAATTGAGCCGATCGAGTAAACAAATTTTCCTAATCTTTCTGTTCAAGCGCCATCTAC”, the binding signal was 0.824 RPM ratio (pull-down/input).

For “GATGATTGTTCTCCCAGCTGATGAATTGCTGTCCTCGAGTAAACAAATTTTCCTAATCTTTCTGTTCAAGCGCCATCTAC”, the binding signal is 1.09 RPM ratio (pull-down/input).

For “GATGATTGTTCTCCCAGCTGATGAATTGACCCTGTCGAGTAAACAAATTTTCCTAATCTTTCTGTTCAAGCGCCATCTAC”, the binding signal was 0.872 RPM ratio (pull-down/input).

“GATGATTGTTCTCCCAGCTGATGAATTGCACCTATCGAGTAAACAAATTTTCCTAATCTTTCTGTTCAAGCGCCATCTAC”: the binding signal is 1.2 RPM ratio (pull-down/input).

In the case of “GATGATTGTTCTCCCAGCTGATGAATTGTGGACGTCGAGTAAACAAATTTTCCTAATCTTTCTGTTCAAGCGCCATCTAC”, the binding signal was 1.03 RPM ratio (pull-down/input).

As to “GATGATTGTTCTCCCAGCTGATGAATTCCGAGTCTCGAGTAAACAAATTTTCCTAATCTTTCTGTTCAAGCGCCATCTAC”, the binding signal is 0.803 RPM ratio (pull-down/input).

As to “GATGATTGTTCTCCCAGCTGATGAATTGGCCTCGTCGAGTAAACAAATTTTCCTAATCTTTCTGTTCAAGCGCCATCTAC”, the binding signal is 0.815 RPM ratio (pull-down/input).

“GATGATTGTTCTCCCAGCTGATGAATTAGCAGGGTCGAGTAAACAAATTTTCCTAATCTTTCTGTTCAAGCGCCATCTAC”: the binding signal is 0.83 RPM ratio (pull-down/input).

With “GATGATTGTTCTCCCAGCTGATGAATTGCGGCTCTCGAGTAAACAAATTTTCCTAATCTTTCTGTTCAAGCGCCATCTAC”, the binding signal is 0.955 RPM ratio (pull-down/input).

For “GATGATTGTTCTCCCAGCTGATGAATTTCACCGCTCGAGTAAACAAATTTTCCTAATCTTTCTGTTCAAGCGCCATCTAC”, the binding signal was 0.814 RPM ratio (pull-down/input).

Take “GATGATTGTTCTCCCAGCTGATGAATTACGCCCCTCGAGTAAACAAATTTTCCTAATCTTTCTGTTCAAGCGCCATCTAC”: the binding signal was 0.968 RPM ratio (pull-down/input).

“GATGATTGTTCTCCCAGCTGATGAATTGCCCCGGTCGAGTAAACAAATTTTCCTAATCTTTCTGTTCAAGCGCCATCTAC”: the binding signal was 0.773 RPM ratio (pull-down/input).

In the case of “GATGATTGTTCTCCCAGCTGATGAATTAACTAGCTCGAGTAAACAAATTTTCCTAATCTTTCTGTTCAAGCGCCATCTAC”, the binding signal was 0.859 RPM ratio (pull-down/input).

Consider “GATGATTGTTCTCCCAGCTGATGAATTCTCCTTTTCGAGTAAACAAATTTTCCTAATCTTTCTGTTCAAGCGCCATCTAC”, for which the binding signal was 0.927 RPM ratio (pull-down/input).

For the sequence “GATGATTGTTCTCCCAGCTGATGAATTACTACTTTCGAGTAAACAAATTTTCCTAATCTTTCTGTTCAAGCGCCATCTAC”, the binding signal was 1.07 RPM ratio (pull-down/input).

With “GATGATTGTTCTCCCAGCTGATGAATTTACTAACTCGAGTAAACAAATTTTCCTAATCTTTCTGTTCAAGCGCCATCTAC”, the binding signal is 1.44 RPM ratio (pull-down/input).

With “GATGATTGTTCTCCCAGCTGATGAATTTTTTAAGTCGAGTAAACAAATTTTCCTAATCTTTCTGTTCAAGCGCCATCTAC”, the binding signal is 0.926 RPM ratio (pull-down/input).

As to “GATGATTGTTCTCCCAGCTGATGAATTACACAAATCGAGTAAACAAATTTTCCTAATCTTTCTGTTCAAGCGCCATCTAC”, the binding signal is 1.77 RPM ratio (pull-down/input).

In the case of “GATGATTGTTCTCCCAGCTGATGAATTAAAGGTATCGAGTAAACAAATTTTCCTAATCTTTCTGTTCAAGCGCCATCTAC”, the binding signal was 0.974 RPM ratio (pull-down/input).

With “GATGATTGTTCTCCCAGCTGATGAATTCATCTATTCGAGTAAACAAATTTTCCTAATCTTTCTGTTCAAGCGCCATCTAC”, the binding signal is 0.906 RPM ratio (pull-down/input).

Take “GATGATTGTTCTCCCAGCTGATGAATTTTTCACATCGAGTAAACAAATTTTCCTAATCTTTCTGTTCAAGCGCCATCTAC”: the binding signal is 1.03 RPM ratio (pull-down/input).

Regarding “GATGATTGTTCTCCCAGCTGATGAATTCAACAATTCGAGTAAACAAATTTTCCTAATCTTTCTGTTCAAGCGCCATCTAC”, the binding signal was 1.27 RPM ratio (pull-down/input).

As for “GATGATTGTTCTCCCAGCTGATGAATTGGCTCCATCGAGTAAACAAATTTTCCTAATCTTTCTGTTCAAGCGCCATCTAC”, the binding signal is 0.923 RPM ratio (pull-down/input).

For the sequence “GATGATTGTTCTCCCAGCTGATGAATTCAATCATTCGAGTAAACAAATTTTCCTAATCTTTCTGTTCAAGCGCCATCTAC”, the binding signal is 0.965 RPM ratio (pull-down/input).

For “GATGATTGTTCTCCCAGCTGATGAATTGGCTACGTCGAGTAAACAAATTTTCCTAATCTTTCTGTTCAAGCGCCATCTAC”, the binding signal was 0.86 RPM ratio (pull-down/input).

Turning to “GATGATTGTTCTCCCAGCTGATGAATTGGTCAGGTCGAGTAAACAAATTTTCCTAATCTTTCTGTTCAAGCGCCATCTAC”, the binding signal was 0.794 RPM ratio (pull-down/input).

Consider “GATGATTGTTCTCCCAGCTGATGAATTCATGACGTCGAGTAAACAAATTTTCCTAATCTTTCTGTTCAAGCGCCATCTAC”, for which the binding signal is 0.965 RPM ratio (pull-down/input).

In the case of “GATGATTGTTCTCCCAGCTGATGAATTTGTCAACTCGAGTAAACAAATTTTCCTAATCTTTCTGTTCAAGCGCCATCTAC”, the binding signal is 1.49 RPM ratio (pull-down/input).

“GATGATTGTTCTCCCAGCTGATGAATTTCATCGGTCGAGTAAACAAATTTTCCTAATCTTTCTGTTCAAGCGCCATCTAC”: the binding signal is 0.797 RPM ratio (pull-down/input).
